The antibiotic and cytotoxicity screens of Wong et al. (2023)
This is one part of the list.

Tested on: HepG2
Experiment: cytotoxicity call (relative viability < 0.9)
Details: 10 µM

Row | Structure (SMILES) | cytotoxicity call
1 | C[C@@H]1CCCCO[C@@H](CN(C)Cc2ccc3c(c2)OCO3)[C@H](C)CN([C@H](C)CO)C(=O)c2cc(NC(=O)Nc3cccc4ccccc34)ccc2O1 | active
2 | C[C@@H]1CN([C@H](C)CO)C(=O)c2cc(NC(=O)Nc3ccc4c(c3)OCO4)ccc2O[C@@H](C)CCCCO[C@@H]1CN(C)S(=O)(=O)c1ccc(F)cc1 | inactive
3 | C[C@H]1CN([C@@H](C)CO)C(=O)c2cccc(NS(=O)(=O)c3cccs3)c2O[C@H]1CN(C)Cc1ccc(Cl)c(Cl)c1 | inactive
4 | O=C1O[C@@H](c2ccccc2)[C@@H](c2ccccc2)N2[C@@H](c3ccc(O)cc3)[C@]3(C(=O)Nc4ccc(C#CC5=CCCCC5)cc43)[C@@H](C(=O)NC[C@H](O)c3ccccc3)[C@H]12 | inactive
5 | C[C@@H]1CN([C@@H](C)CO)C(=O)c2cc(NC(=O)C3CCCCC3)ccc2O[C@@H]1CN(C)Cc1ccc(C(=O)Nc2ccccc2N)cc1 | inactive
6 | O=C1c2ccncc2C(=O)N1CO | inactive
7 | COc1ccc(S(=O)(=O)N2C[C@H](O)COC[C@H]3O[C@@H](CC(=O)N[C@@H]4CCN(Cc5ccccc5)C4)CC[C@@H]32)cc1 | inactive
8 | COc1ccc(S(=O)(=O)N[C@@H]2CC[C@H](CC(=O)N3CCN(c4ccccc4)CC3)O[C@H]2CO)cc1 | inactive
9 | CC(C)(O)C#Cc1ccc([C@@H]2[C@H](CO)N3CCCCN(S(C)(=O)=O)C[C@@H]23)cc1 | inactive
10 | COc1ccccc1CNS(C)(=O)=O | inactive
11 | CON=C(C(=O)NC1C(=O)N2C(C(=O)O)=C(C[N+]3(C)CCCC3)CSC12)c1csc(N)n1.[Cl-] (centres undefined) | inactive
12 | CC[C@@]1(O)C[C@H](O[C@H]2C[C@H](N(C)C)[C@H](O[C@H]3C[C@H](O)[C@H](O[C@H]4CCC(=O)[C@H](C)O4)[C@H](C)O3)[C@H](C)O2)c2c(cc3c(c2O)C(=O)c2c(O)cccc2C3=O)[C@H]1C(=O)OC | active
13 | Cc1cc(O)c(C=O)c2c1C(=O)Oc1c(COC(=O)C=CC(=O)O)c(O)c(C(=O)O)c(C)c1O2 | inactive
14 | C[C@@H]1CN([C@@H](C)CO)C(=O)Cc2cc(NC(=O)CCN3CCOCC3)ccc2O[C@H]1CN(C)CC1CC1 | inactive
15 | CN(C)CCCNC(=O)C[C@H]1CC[C@@H]2[C@H](COC[C@@H](O)CN2S(=O)(=O)c2ccc(Cl)cc2)O1 | inactive
16 | C[C@@H]1CN([C@@H](C)CO)C(=O)c2cc(NS(=O)(=O)c3cccs3)ccc2O[C@@H](C)CCCCO[C@H]1CN(C)C(=O)Nc1cccc2ccccc12 | inactive
17 | CO[C@@H]1CN(C)C(=O)c2cc(NS(=O)(=O)c3cn(C)cn3)ccc2OC[C@@H](C)N(CC2CC2)C[C@H]1C | inactive
18 | CC(/C=C/C(=O)NO)=C\c1ccccc1OCc1cn(C[C@@H]2CCCN2S(=O)(=O)c2ccc(C)cc2)nn1 | active
19 | Cc1ccc(S(=O)(=O)N(C)C[C@@H]2Oc3c(NC(=O)C4CC4)cccc3C(=O)N([C@@H](C)CO)C[C@H]2C)cc1 | inactive
20 | CC(C)(C)OC(=O)C[C@H]1CC=CC[C@H](CC(=O)NCCO)C(=O)N[C@@H](Cc2c[nH]c3ccccc23)COC1=O | inactive
21 | C[C@@H]1CN([C@H](C)CO)C(=O)c2cc(NS(C)(=O)=O)ccc2O[C@@H](C)CCCCO[C@H]1CN(C)Cc1ccc(Cl)c(Cl)c1 | active
22 | C[C@@H]1CN([C@H](C)CO)C(=O)c2cc(NS(=O)(=O)c3cn(C)cn3)ccc2O[C@H]1CN(C)Cc1ccncc1 | inactive
23 | COCC#Cc1cnc2c(c1)C(=O)N([C@@H](C)CO)C[C@@H](C)[C@H](CN(C)C(=O)c1ccc3c(c1)OCO3)O2 | inactive
24 | CNC(=C[N+](=O)[O-])NCCSCc1ccc(CN(C)C)o1.Cl | inactive
25 | COc1ccccc1NC(=O)C[C@H]1CC[C@H]2[C@@H](COc3ccc(NS(C)(=O)=O)cc3C(=O)N2C)O1 | inactive
26 | C[C@@H]1CN([C@H](C)CO)C(=O)Cc2cc(NC(=O)NC3CCCCC3)ccc2O[C@H]1CN(C)S(C)(=O)=O | inactive
27 | COCC(=O)N1C[C@@H](C)[C@H](OC)CN(C)C(=O)c2ccc(NC(=O)c3cc(C)on3)cc2OC[C@@H]1C | inactive
28 | C[C@@H]1CN([C@@H](C)CO)C(=O)c2cc(NS(=O)(=O)c3ccc(F)cc3)ccc2O[C@@H]1CN(C)S(=O)(=O)c1ccc(F)cc1 | inactive
29 | CCCC(=O)Nc1ccc2c(c1)C(=O)N(C)C[C@H](OC)[C@H](C)CN(Cc1ccc(-c3ccccn3)cc1)[C@@H](C)CO2 | inactive
